# Measured values: the supplement of paper PMC8728848
# The list shows a part of the results.
# B1: Als3-N (Candida albicans) (protein)
# chain: KTITGVFNSFNSLTWSNAATYNYKGPGTPTWNAVLGWSLDGTSASPGDTFTLNMPCVFKFTTSQTSVDLTAHGVKYATCQFQAGEEFMTFSTLTCTVSNTLTPSIKALGTVTLPLAFNVGGTGSSVDLEDSKCFTAGTNTVTFNDGGKKISINVDFERSNVDPKGYLTDSRVIPSLNKVSTLFVAPQCANGYTSGTMGFANTYGDVQIDCSNIHVGITKGLNDWNYPVSSESFSYTKTCSSNGIFITYKNVPAGYRPFVDAYISATDVNSYTLSYANEYTCAGGYWQRAPFTLRWTGYRNSDAGSNGIVIVATTRTVTDSTTAVTTLPFDPNRDKTKTIEILKPIPTTTITTSYVGVTTSYLTKTAPIGETATVIVDIPYHTTTTVTSKWTGTITSTTTHTNPTDSIDTVIVQVP
# Assays:
# Assay in all cases: glycan array binding signal (z-score within array); higher = stronger binding
# Conditions in all cases: glycan notation: IUPAC condensed, linker removed
# [1] = target: Neu5Ac(a2-3)Gal(b1-4)GlcNAc(b1-3)[Neu5Ac(a2-3)Gal(b1-4)GlcNAc(b1-6)]GalNAc
# How it was run: (§1)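 The Consortium for Functional Glycomics database supplied 3228 glycan arrays, of which those lacking an available protein sequence were dropped. The binding signal, a within-array Z-score, was averaged across arrays of the same protein sequence and across linkers. Negative scores can be read as non-binding.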
# [2] = target: Neu5Ac(a2-3)Gal(b1-4)GlcNAc(b1-6)GalNAc
# How it was run: as §1
# [3] = target: Neu5Ac(a2-3)Gal(b1-4)GlcNAc(b1-6)[Gal(b1-3)]GalNAc
# How it was run: as §1
# [4] = target: Neu5Ac(a2-3)Gal(b1-4)GlcNAc(b1-6)[Neu5Ac(a2-3)Gal(b1-3)]GalNAc
# How it was run: as §1
# [5] = target: Neu5Ac(a2-3)Gal(b1-4)GlcNAc6S
# How it was run: as §1
# [6] = target: Neu5Ac(a2-3)Gal(b1-4)[Fuc(a1-3)]GlcNAc
# How it was run: as §1
# [7] = target: Neu5Ac(a2-3)Gal(b1-4)[Fuc(a1-3)]GlcNAc(b1-2)Man
# How it was run: as §1
# [8] = target: Neu5Ac(a2-3)Gal(b1-4)[Fuc(a1-3)]GlcNAc(b1-3)Gal
# How it was run: as §1
# [9] = target: Neu5Ac(a2-3)Gal(b1-4)[Fuc(a1-3)]GlcNAc(b1-3)Gal(b1-4)GlcNAc
# How it was run: as §1
# [10] = target: Neu5Ac(a2-3)Gal(b1-4)[Fuc(a1-3)]GlcNAc(b1-3)Gal(b1-4)[Fuc(a1-3)]GlcNAc(b1-3)Gal(b1-4)[Fuc(a1-3)]GlcNAc
# How it was run: as §1
# [11] = target: Neu5Ac(a2-3)Gal(b1-4)[Fuc(a1-3)]GlcNAc(b1-3)GalNAc
# How it was run: as §1
# [12] = target: Neu5Ac(a2-3)Gal(b1-4)[Fuc(a1-3)]GlcNAc(b1-6)[Gal(b1-3)]GalNAc
# How it was run: as §1
# [13] = target: Neu5Ac(a2-3)Gal(b1-4)[Fuc(a1-3)]GlcNAc(b1-6)[Neu5Ac(a2-3)Gal(b1-3)]GalNAc
# How it was run: as §1
# [14] = target: Neu5Ac(a2-3)Gal(b1-4)[Fuc(a1-3)]GlcNAc6S
# How it was run: as §1
# [15] = target: Neu5Ac(a2-3)Gal6S(b1-4)GlcNAc
# How it was run: as §1
# [16] = target: Neu5Ac(a2-3)Gal6S(b1-4)[Fuc(a1-3)]GlcNAc
# How it was run: as §1
# Neu5Ac(a2-3)GalNAc = target: Neu5Ac(a2-3)GalNAc
# How it was run: as §1
# [17] = target: Neu5Ac(a2-3)GalNAc(b1-4)GlcNAc
# How it was run: as §1
# [18] = target: Neu5Ac(a2-3)[GalNAc(b1-4)]Gal(b1-4)Glc
# How it was run: as §1
# [19] = target: Neu5Ac(a2-3)[GalNAc(b1-4)]Gal(b1-4)GlcNAc
# How it was run: as §1
# [20] = target: Neu5Ac(a2-3)[GalNAc(b1-4)]Gal(b1-4)GlcNAc(b1-3)GalNAc
# How it was run: as §1
# [21] = target: Neu5Ac(a2-3)[Neu5Ac(a2-6)]GalNAc
# How it was run: as §1
# Neu5Ac(a2-6)Gal = target: Neu5Ac(a2-6)Gal
# How it was run: as §1
# [22] = target: Neu5Ac(a2-6)Gal(b1-3)GlcNAc(b1-3)[Gal(b1-4)GlcNAc(b1-6)]Gal(b1-4)Glc
# How it was run: as §1
# Neu5Ac(a2-6)Gal(b1-4)Glc = target: Neu5Ac(a2-6)Gal(b1-4)Glc
# How it was run: as §1
# [23] = target: Neu5Ac(a2-6)Gal(b1-4)GlcNAc
# How it was run: as §1
# [24] = target: Neu5Ac(a2-6)Gal(b1-4)GlcNAc(b1-2)Man
# How it was run: as §1
# [25] = target: Neu5Ac(a2-6)Gal(b1-4)GlcNAc(b1-2)Man(a1-3)Man(b1-4)GlcNAc(b1-4)GlcNAc
# How it was run: as §1
# [26] = target: Neu5Ac(a2-6)Gal(b1-4)GlcNAc(b1-2)Man(a1-3)[Gal(b1-4)GlcNAc(b1-2)Man(a1-6)]Man(b1-4)GlcNAc(b1-4)GlcNAc
# How it was run: as §1
# [27] = target: Neu5Ac(a2-6)Gal(b1-4)GlcNAc(b1-2)Man(a1-3)[GlcNAc(b1-2)Man(a1-6)]Man(b1-4)GlcNAc(b1-4)GlcNAc
# How it was run: as §1
# [28] = target: Neu5Ac(a2-6)Gal(b1-4)GlcNAc(b1-2)Man(a1-3)[GlcNAc(b1-4)][Neu5Ac(a2-6)Gal(b1-4)GlcNAc(b1-2)Man(a1-6)]Man(b1-4)GlcNAc(b1-4)GlcNAc
# How it was run: as §1
binder,measurement,setting,value
B1,glycan array binding signal (z-score),[1],-0.204
same,glycan array binding signal (z-score),[2],-0.202
same,glycan array binding signal (z-score),[3],-0.233
same,glycan array binding signal (z-score),[4],-0.23
same,glycan array binding signal (z-score),[5],-0.336
same,glycan array binding signal (z-score),[6],-0.182
same,glycan array binding signal (z-score),[7],0.036
same,glycan array binding signal (z-score),[8],0.314
same,glycan array binding signal (z-score),[9],0.029
same,glycan array binding signal (z-score),[10],-0.16
same,glycan array binding signal (z-score),[11],0.382
same,glycan array binding signal (z-score),[12],1.2
same,glycan array binding signal (z-score),[13],-0.003
same,glycan array binding signal (z-score),[14],-0.27
same,glycan array binding signal (z-score),[15],-0.254
same,glycan array binding signal (z-score),[16],-0.22
same,glycan array binding signal (z-score),Neu5Ac(a2-3)GalNAc,-0.215
same,glycan array binding signal (z-score),[17],-0.174
same,glycan array binding signal (z-score),[18],-0.193
same,glycan array binding signal (z-score),[19],2.21
same,glycan array binding signal (z-score),[20],0.502
same,glycan array binding signal (z-score),[21],-0.049
same,glycan array binding signal (z-score),Neu5Ac(a2-6)Gal,-0.171
same,glycan array binding signal (z-score),[22],-0.315
same,glycan array binding signal (z-score),Neu5Ac(a2-6)Gal(b1-4)Glc,-0.187
same,glycan array binding signal (z-score),[23],-0.164
same,glycan array binding signal (z-score),[24],0.001
same,glycan array binding signal (z-score),[25],-0.092
same,glycan array binding signal (z-score),[26],-0.067
same,glycan array binding signal (z-score),[27],-0.327
same,glycan array binding signal (z-score),[28],-0.248
